Assay results from the RNAGym collection of RNA variant scans (doi:10.1073/pnas.2313332121).
Variants at the floor of the assay are shown more often than the library holds them.

B1: TPR 5TU (parent)
chain: GGAUCUUCUCGAUCUAACAAAAAAGACAAAUCUGCCACAAAGCUUGAGAGCAUCUUCGGAUGCAGAGGCGGCAGCCUUCGGUGGCGCGAUAGCGCCAACGUUCUCAACUAUGACACGCAAAACGCGUGCUCCGUUGAAUGGAGUUUAUCAUG

Variants of: B1
Experiment: polymerase ribozyme fitness, log enrichment relative to wild type (log ratio); higher = more active; in vitro selection for triplet polymerase activity
How it was run: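 PCR was used to build mutant libraries for each subunit of a heterodimeric triplet polymerase ribozyme, which were then transcribed. A single in vitro selection round, in triplicate, used a frozen incubation at −7 °C and recovered extended constructs by gel excision, streptavidin beads and RT-PCR. Fitness is the logarithm of genotype enrichment relative to wild-type enrichment, averaged over replicates with inverse-variance weights. The logarithm is base 2, and after Illumina sequencing only genotypes with ≥10 input reads and ≥1 read per output were kept.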

Polymerase ribozyme fitness (log ratio), ≤ -4.2:
G11C G68A A89G U111G C114G G140A
G11C U13G U53G U55A G92U
G11C U53G C95G G128U
G11C U55G G80C C85A A107G
G11C U77G A91U
G11U A12U C27G A64C C93U A150G
G11U A16U A29U U31A A40U G84U G86U A89G C105U A138C
G11U A20C C27A A29G C51A G70U U134A
G11U A21C A29G U45G A91U C129G
G11U A21C C43G U56G G62C G92A G141C
G11U A21U U45A A49U C87G C93U A113G A138U C149G
G11U A21U U45A G84C G86A C95G
G11U A30U A47G C85U C125U G141A
G11U A30U G48C A73U A91U C114U C132G
G11U A37U C87G A106C G128A
G11U A40C G50C U82C C85A U101A A106C A115U A142U
G11U A49C C85A C93A G124U G141C
G11U A89U G92A U104A G140A U144G
G11U C14U C35A U45A G86U C125U
G11U C27A C87G U111G C131U U146G U148G
G11U C35U A49G U53A C87U A89C C95U C132A A142C
G11U C51G A52G C118A A122C
G11U C57G A113G
G11U C79A G83A C93U C99G C125G C132G
G11U G34U G58C C95U G126A U144A
G11U G48A C85A A89U A98U A113G G117A
G11U G71U C103U A138C G140U
G11U G88C C93G G143C U144C
G11U U13G C51G C85U G88A C93A A97U C114U G143A
G11U U15A C93A A120C
G11U U33A C75U C87U G128A U148C
G11U U90C U127C
A12C A16U A22G G48C C57U C69A G92C C103A C118A C132A
A12C A17C A29C A49C C51G A60C A89U C93G G112U C116G U135A U148C
A12C A17G C87A A91U C116A
A12C A17U C27G G62U A97C
A12C A17U U55A G83U U101G C116G
A12C A19C A20U U44G G50A G59C C123U U135A
A12C A20C A30C C57G G67A C93G C116G
A12C A21U C43A G48U G58U G70A C95U A120C
A12C A24C U55G C85G G100A C132G
A12C A26U G42U A52U U53A U56A C57A A110G C114U G124U U148A
A12C A28U U45A U82G
A12C A39C A40U C54U A115G A119C G136A
A12C C14A U53A U109A U111G G112A C116U A142C
A12C C14G U33C U45G G92U A122C
A12C C14G U55A A66G U90G C96A A122C
A12C C18U G50C C51U C118G
A12C C32G A66G C93U C103A
A12C C32U U45A A73G G81C C85G
A12C C35G
A12C C36A G42A G94U A150G
A12C C38U G58A U77A C96U
A12C C54U A91U A107G C131U
A12C C54U G70A A91U C116A G117U A121U U139G A142C
A12C C57U U77C G83U
A12C C69G G70A C96U A110U
A12C C79U C85U A142U
A12C C87A
A12C G25C A91G A150C
A12C G34U U55G G68A G86A
A12C G46U A49C U53A A73G C79A A91G G92C C93G G94C C105U
A12C G58C C69A G84C G143A
A12C G71A C85U C96A A107G C118A
A12C U15G C79A C99A
A12C U53A C57U U78G G117C C149A
A12G A17C A52U A66C G94A
A12G A17U G58C C85U G100U
A12G A19C A29U U61A G84A
A12G A21C A39C U44A G71A C76A U102G A115G C116U
A12G A21C A41U C99G A150C
A12G A21G A49G U55A C72A U77C G140U
A12G A21U U53G C87G G140C U146A
A12G A23C G34A A47U G86C
A12G A28C G34A G67C C95G C125G G128U
A12G A28C U53C A73U U109G
A12G A29C U55G A64C G70C C118U A138U
A12G A30C C38A A91U
A12G A30G U45A G86A
A12G A30U C43A U90G G124C U144A
A12G A40G U82C C87G C93U
A12G A49C C51G U55A G58A U77C C79G G86C C95G
A12G A64C U78G G80A G133U U145C
A12G A73U C76G G141U
A12G C14A C51A C93G C118U C129A A137U
A12G C18U G67U G70C G94U U102A C114A A137C G140A A150G
A12G C27U A28C G50C A66U G86C
A12G C36U A73U C76G C87G C116A C118G
A12G C38G A91U A106G G136A A147C
A12G C43G U53A C75A G92C A98G A120U C131U G133A
A12G C51G U61G C99A A113G C125U
A12G C51U A66U C93U A98U G124A
A12G C57G C76U U77G G86A C93U A115U
A12G C75G C87A G92C C123G A137C
A12G G46C C69G G88U
A12G G48U U56A C75U G84U A97G G133U
A12G G62C G74C G141U C149G
A12G G67A G86A G140C
A12G G67A U90A A106G A113U U134A
A12G G92A G94A G117U U135G G143C
A12G U13A C14U U15C A41G G65U A73U C87A C116G C132G
A12G U13C U61A C75U A122U U151G
A12G U33A A47C A73C U77G G94U C108G
A12G U45A A120U G124A G141U U148G
A12G U53A U55A G58C U77G C93A A107U C132A
A12G U55A G80A A150C
A12U A16C C54A C93G
A12U A16G A91U C95U G128U
A12U A16G C43G G92A C108G U130G
A12U A17U C35G G81C C87U G124C
A12U A19U A30C C32A C57A A91G U109A U144G
A12U A20G A24U A47G C75G C108U C129A
A12U A20G G50A C76U G88C A119C U135C U144A
A12U A22C G65A C93U U109C
A12U A22G A52G G94U U127G C149A
A12U A22U U90G C114G
A12U A24U A26G G65A G92U G143A
A12U A24U A41G C85A G92C
A12U A26C A49G C93G C95U A113G
A12U A26G C32A G81U C85U A106C C108A C114U G136C G141A A142U
A12U A28C C93A C103A A147C U148G A150C
A12U A29U C32U A39C G67A C93A A137G
A12U A30U A91G
A12U A37G G46A G92A A113U G141U
A12U A39C U53C C72A A91U C125U G140U
A12U A39C U55G C57G C75U G81A A115U C132G G136U U146G
A12U A39G C51U C75U C79A G94A
A12U A41C G42C C54U G59C G62C G124C U148C
A12U A49C C51U C85A G140A
A12U A52G U56G A73G G84A A107U A113C
A12U C14A A30G U53A A97G C99A G128C
A12U C14G A64G U144G
A12U C14U A23G U56A C87U A142G U144A
A12U C18G A20C A37C U77C C99U
A12U C27G C75A C79G G92U A121C C131G A147C
A12U C27G G84C G143C
A12U C27U G59A C79U
A12U C35G G46A C57G A60C C95U A119U
A12U C35U A41C U78G G94U A115C
A12U C35U C36G C85U C93A C95G C123U
A12U C36A C63A C87A A107U C129U G136A
A12U C54A G71U A91G
A12U C57U U90G C95U U102C A119U C129U
A12U C69U C85G A107C C131U U134G
A12U C72G G84A A91C G94C U111C
A12U C85G U134A G143C
A12U C87A G141C
A12U G25A C87U C103G G124C
A12U G25C C38U C54U C75G C93A A121U C149U A150G
A12U G34A C57G C69A G88U
A12U G42U C51A G88A C131A
A12U G46A A49G C93U U135A U145G
A12U G46A U104C A110G A119G
A12U G48A U55A G65A G68C C85G G88U C93U A106C U111A G112C C114G C125A
A12U G74U G86U
A12U G83A A89U G92C C118G U139A
A12U G83C G136C
A12U G86U C96U A97U C103G
A12U U13A A21U A23G U44A G50U C87G A91G
A12U U13A C93A G94C C105U U134G
A12U U13A U15A C27A A40G A49C C116A
A12U U15C A30U U45A C69A C85G A115U
A12U U31C A66G C79G A89G
A12U U33C G34U C38U G42A C85U U90G C93A A106U C132U
A12U U33G A49C C87U A107G G117A U127A
A12U U53A C57U C85A G143U
A12U U53G A66G A91G A98U C105G A142C
